Experimental data taken from the RNAGym collection of RNA variant scans (doi:10.7554/elife.90254).
Read counts are not given, so values of variants with three or more changes are uncertain.

B1: LINE1-full (parent)
chain: UACGUAGGUGGUUUUCCCCUGAUAGUGCUAAGGGGGCCUGGAAGUUUGGACUGGGCAGAGCUCAACACAGCGUGGCAAAGUGGCUGUGGCUAGACUGCCUCUCUGGAUUCCUCGUCACUCAGCAGGGCAUCUCUGAGAGAAAUGCC

Variants of: B1
Assay: self-cleavage, relative activity (ratio to wild type); higher = more cleavage; in vitro, sequencing; the parent is a self-cleaving ribozyme
For A79U C84U U102C A129G A142G, the self-cleavage was 0.04. Variant U14C U23C U81C has a self-cleavage of 0.92. U23C C90G A117U showed a self-cleavage of 0.09. For G7A U20A U134C, the self-cleavage was 0.8. Work on U45C A94G U112A yielded a self-cleavage of 1.84. Work on A64U U85C A140U yielded a self-cleavage of 0.05. Work on U12C U45G A64G U109C A117U yielded a self-cleavage of 0. Variant U47A A57G U62C U100A A140G has a self-cleavage of 0. With U39A U47C U112C the self-cleavage was 2.47. Variant A57G C103A A129G has a self-cleavage of 0.77. With A65C A69U G83A the self-cleavage was 0.02. Work on C17U U20C U26G G93C A94G yielded a self-cleavage of 0. Variant U15A A59G U96A A121U G125U has a self-cleavage of 0. For U23C A64G U87A A129G, the self-cleavage was 0.25. Variant U1C A22G U26C has a self-cleavage of 0.95. With A6G A22G A107G the self-cleavage was 2. Variant U9C U29C A30G G75A A142G has a self-cleavage of 1.41. Variant C38U A67U U81C U87C U100C A138G has a self-cleavage of 0. U45C A141G C146U showed a self-cleavage of 0.9. A57G A65C A69G gave a self-cleavage of 0. U12C A64G A138G gave a self-cleavage of 0.38. With U52G A65G U73A G122C the self-cleavage was 0. In the case of U9C U14C A69U A92G A136G, the self-cleavage is reported as 0.33. For A30G A64G U102A U109C, the self-cleavage was 1.62. U73C U85C G86C U96A gave a self-cleavage of 0.04. U62C A78G U91C A142G gave a self-cleavage of 0. Variant U73C A107G A142G has a self-cleavage of 0. G25A A42G G60A gave a self-cleavage of 0.09. Variant C68U A69G A138G has a self-cleavage of 0.19. For U100C U134C A136G, the self-cleavage was 1.62. With U52A A64C U104A A138G A142G the self-cleavage was 0.5. G49A A57G A69C A138G gave a self-cleavage of 0.02. Variant U47A A79G A117G has a self-cleavage of 0.51. For U29C U119C U130C, the self-cleavage was 0.88. Work on G89A G126U A138G A142G yielded a self-cleavage of 0.05. With U5C U81A U108C the self-cleavage was 2.67. U26C U47C C56U U96C gave a self-cleavage of 0.02. In the case of C3U U45C U52C, the self-cleavage is reported as 2.7. A50G A65U A117G U132C gave a self-cleavage of 0.92. In the case of G8U U20A A43G A140G, the self-cleavage is reported as 1.71. U62C C99A U102G gave a self-cleavage of 0.1. For U23C A136G U143C, the self-cleavage was 2.04. U46C A64G C71U U87G U115C A136G U143C showed a self-cleavage of 0.11. U15A A121U U143C gave a self-cleavage of 1.28. Work on U12A U100C U102C A142G yielded a self-cleavage of 2.36. In the case of U14G U15C U26A A31U U45C C61U U62C A79G U134A, the self-cleavage is reported as 0. With U26A U39A U134A the self-cleavage was 0.64. For A43G A59G A78G, the self-cleavage was 0.16. Variant G36A U73C A138G has a self-cleavage of 1.23. In the case of C37U A57G A69U A124U, the self-cleavage is reported as 0.06. U9C U45C A64U A141G gave a self-cleavage of 0.56. Work on A22G A43G G44A yielded a self-cleavage of 1.07. For U20A A67U A77G U96A U102C A124G, the self-cleavage was 0. Work on U12C C61A U87A U91C A136U yielded a self-cleavage of 0.07. With U13G A50U U100A A136G A142U the self-cleavage was 0.92. Variant U14A G25U A77U has a self-cleavage of 0.63. U102C A129G U132C showed a self-cleavage of 0.92. For A6G U15C A43G G93A, the self-cleavage was 0.51. Variant A6G C28U U85C U130C has a self-cleavage of 0.08. Work on U13C U115C U134A yielded a self-cleavage of 0. Variant C19U A30G A65G has a self-cleavage of 0.06. U45C U62C U143C gave a self-cleavage of 0.15. Work on G4C U13A U15A U45C yielded a self-cleavage of 0.46. Variant U23C U62A U109A has a self-cleavage of 0.07. Work on A50G G53A U62C yielded a self-cleavage of 0.04. U1C U47G U85C showed a self-cleavage of 0.1. In the case of G33U U52G U108C, the self-cleavage is reported as 1.36. In the case of G32A U46C A140G, the self-cleavage is reported as 0.92. U20A A50G A65G A121G showed a self-cleavage of 0. For G7U U13A U45A, the self-cleavage was 1.01. U13C A69C U73C U112C showed a self-cleavage of 0. Variant A79G U115A A141G has a self-cleavage of 1.64. In the case of C18U U108C U130C, the self-cleavage is reported as 1.29. For A22G U102C A124U, the self-cleavage was 1.93. U9C U100C C128U gave a self-cleavage of 1.54. Variant U13C U52C A129G has a self-cleavage of 0.54. Variant A57G U112A U130C A140G has a self-cleavage of 1.3. A22G A43G A107G showed a self-cleavage of 0.8. U46A A129G U143C gave a self-cleavage of 1.91. U29C A77G A138G showed a self-cleavage of 2.44. C38A U73C U102A A136U A140G showed a self-cleavage of 2.13. In the case of A42G A67G A141G, the self-cleavage is reported as 0.21. A6U G72A U91A C95G showed a self-cleavage of 0.04. U23C A57U G75U showed a self-cleavage of 0.11.
